{"source": "PubChem BioAssay AID686978", "about": "(National Center for Advancing Translational Sciences (NCATS), 2013)", "note": "Hit rate of the full screen: of about 420,000 compounds, about 64,000 (15%) were called active. The inconclusive results got no clear call from the source; some entries with a clear call stand among them for comparison. The call rests on the fitted dose curve; in most records, active means well fitted inhibition curve with a large enough effect; inconclusive means small, poorly fitted or top-dose-only effect; inactive means flat fitted curve, though single readings scatter. Potencies of inconclusive entries are left out as doubtful fits. On the % scale 0 is the no-effect control and ±100 the full control effect; potency means the concentration at half of the fitted maximal effect; tags describe the fitted curve by direction and shape.", "data": [{"assay": "qHTS for Inhibitors of human tyrosyl-DNA phosphodiesterase 1 (TDP1): qHTS in cells in absence of CPT; further: nearly all actives have a fitted effect of over 55% in size", "conditions": "DT40 Tdp1-/- hTDP1 cells, no CPT, ATP luminescence, 48 h; activity change, negative = growth inhibition: at 46.2 µM (top of the series) unless noted", "method_in_brief": "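Chicken DT40 Tdp1-/- cells complemented with human TDP1, screened without camptothecin (DMSO vehicle only), 400 cells/well. Compounds pin-transferred, cells incubated at 37 °C for at least 48 hr. Growth read as ATP-dependent luminescence (CellTiter-Glo, 30 min at RT).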", "values": [{"smiles": "Cc1cc(C)c2nc(N(CCCN(C)C)C(=O)c3ccc4c(c3)CCCC4)sc2c1", "Potency": "active: 10.3 µM"}, {"smiles": "O=C1/C(=C\\c2cccnc2)CN(Cc2ccccc2)C/C1=C\\c1cccnc1", "Potency": "active: 1.64 µM"}, {"smiles": "CCc1ccc(C2=C(C)C(N3CCC(C(=O)Nc4ccc(F)cc4)CC3)=NS2(=O)=O)cc1", "Potency": "inconclusive [inhibitor, single point]"}, {"smiles": "O=C(Nc1cccc(C(=O)N2CCN(c3ccccc3)CC2)c1)c1nsc2ccccc12", "Potency": "inconclusive [inhibitor, single point]"}, {"smiles": "N=C(SC1CC(=O)N(c2ccc(F)cc2)C1=O)N1N=C(c2ccccc2)CC1c1ccccc1", "note": "(stereo not given)", "Potency": "inconclusive [inhibitor, single point]"}, {"smiles": "O=C(c1ccccc1)N1N=C(c2cccs2)CC1c1ccccc1O", "note": "(stereo not given)", "Potency": "inconclusive [inhibitor, partial curve, poor fit]"}, {"smiles": "CC1CCCN(C(=O)c2cc(S(=O)(=O)N3CCCCC3)c[nH]2)C1", "note": "(stereo not given)", "Potency": "inconclusive [inhibitor, single point]"}, {"smiles": "O=C(CC1SC(N2CCCC2)=NC1=O)Nc1ccc(C(=O)N2CCCC(C(F)(F)F)C2)cc1", "note": "(stereo not given)", "Potency": "inactive"}, {"smiles": "Cc1cc(C#Cc2c(-c3ccccc3)n(C)c3ccccc23)ccc1F", "Potency": "inactive"}, {"smiles": "CC(C)C(=O)NC(Nc1cccc([N+](=O)[O-])c1)C(Cl)(Cl)Cl", "note": "(stereo not given)", "Potency": "inconclusive [inhibitor, single point]"}, {"smiles": "COc1ccc(Nc2ccc3ccccc3c2)cc1", "Potency": "inconclusive [inhibitor, single point]"}, {"smiles": "Cc1ccc(NC(=O)CCn2nc(-c3ccccc3)c3ccccc3c2=O)c(C)c1", "Potency": "inconclusive [inhibitor, single point]"}, {"smiles": "Fc1ccc(Nc2nc(-c3cccc(Cl)c3)c3c(n2)-c2ccccc2OC3)cc1", "activity change, negative = growth inhibition": "inconclusive: -30.5% [inhibitor]"}, {"smiles": "COc1c2c(cc3c1C(c1c(O)c4ccccc4oc1=O)N(C)CC3)OCO2", "note": "(stereo not given)", "activity change, negative = growth inhibition": "inactive: 3.96% [at 9.04 µM]"}, {"smiles": "NC(=O)c1ccccc1NC(=O)CCn1c(=S)oc2ccccc21", "Potency": "inconclusive [inhibitor, partial curve]"}, {"smiles": "O=C(CSc1nnc(Cc2ccccc2)c(=O)[nH]1)Nc1ccccc1", "Potency": "inconclusive [inhibitor, partial curve]"}, {"smiles": "CC(=O)c1ccc(NC(=O)C2CCCN(S(=O)(=O)c3ccc(Br)s3)C2)cc1", "note": "(stereo not given)", "Potency": "inactive"}, {"smiles": "CC1NC(=O)c2cc3ccccc3cc2-n2c1nc1cc(Cl)ccc1c2=O", "note": "(stereo not given)", "Potency": "inconclusive [inhibitor, single point]"}, {"smiles": "Cc1cccn2c(=O)c3cc(C(=O)NC(C)(C)C)n(C)c3nc12", "Potency": "active: 18.4 µM"}, {"smiles": "COc1cc(CN2C[C@@H](CO)O[C@@H](n3cnc4c(NCc5ccc(F)cc5)ncnc43)C2)cc(OC)c1OC", "Potency": "inconclusive [inhibitor, single point]"}, {"smiles": "COc1[nH]c(/N=C/c2ccco2)c(C#N)c1C#N", "Potency": "inconclusive [inhibitor, single point]"}, {"smiles": "CC1(C)CC(=O)C2=C(C1)NC1=C(C(=O)c3ccccc31)C2c1cccnc1", "note": "(stereo not given)", "Potency": "inconclusive [inhibitor, single point]"}, {"smiles": "COc1ccccc1OCCn1cc(C(=O)c2ccco2)c2ccccc21", "Potency": "active: 18.4 µM"}, {"smiles": "CCOC(=O)C1CCN(c2nc3c(S(=O)(=O)c4ccc(CC)cc4)nnn3c3ccc(Cl)cc23)CC1", "Potency": "inconclusive [inhibitor, single point]"}, {"smiles": "Cc1cc(Cl)ccc1NC(=O)CS(=O)(=O)c1cccc2nsnc12", "Potency": "inconclusive [inhibitor, single point]"}, {"smiles": "O=S(=O)(Nc1ccc(S(=O)(=O)N2CCCCC2)cc1)c1ccc(Br)s1", "Potency": "inconclusive [inhibitor, partial curve]"}, {"smiles": "Cc1ccc(-c2cc(C(=O)O)c3cc(Br)ccc3n2)o1", "Potency": "inactive"}, {"smiles": "COc1cc(OC)nc(Nc2nc(CN)cs2)n1", "Potency": "inconclusive [inhibitor, single point]"}, {"smiles": "Cc1ccc(C(=O)N2CCN(Cc3ccccc3)CC2)cc1S(=O)(=O)N1CCOCC1", "Potency": "inactive"}, {"smiles": "CCOc1ccc(NC(=O)c2sc3nc4n(c(=O)c3c2C)CCCC4)cc1", "Potency": "active: 13 µM"}, {"smiles": "Cc1cc(F)ccc1S(=O)(=O)N1CCCCC1CCNC(=O)C(=O)NCCN1CCOCC1", "note": "(stereo not given)", "Potency": "inconclusive [inhibitor, single point]"}, {"smiles": "COc1cccc(S(=O)(=O)NCC(=O)Nc2ccc(C(C)(C)C)cc2)c1", "Potency": "inconclusive [inhibitor, single point]"}, {"smiles": "CC(=O)CCc1oc2c([N+](=O)[O-])cccc2c1-c1ccc(C)o1", "Potency": "inconclusive [inhibitor, single point]"}, {"smiles": "CCn1cc(CN2CCc3c([nH]c4ccccc34)C2c2ccc(F)c(OC)c2)c(C)n1", "note": "(stereo not given)", "Potency": "inactive"}, {"smiles": "CCOc1ccc(N(CC(=O)NCc2ccc(F)cc2)C(=O)c2snc(C(N)=O)c2N)cc1", "Potency": "inactive"}, {"smiles": "Cc1nc2ccccc2c(=O)n1NCc1cc(Br)cs1", "Potency": "active: 14.6 µM"}, {"smiles": "CCOC(=O)C1CCN(C(=O)Cn2cnc3sc(C)c(S(=O)(=O)N4CCOCC4)c3c2=O)CC1", "Potency": "inactive"}, {"smiles": "O=C(c1ccc(N2CCOCC2)c([N+](=O)[O-])c1)N1CCN(c2ccccc2)CC1", "Potency": "inconclusive [inhibitor, single point]"}, {"smiles": "C=CCC1(CC=C)CCCN1C(=O)c1ccc2oc(CCCC)nc2c1", "Potency": "active: 10.3 µM"}, {"smiles": "Cc1c(C(=O)N2CCCCC2)c(S(=O)(=O)NCc2ccccc2Cl)c(C)n1C", "Potency": "inconclusive [inhibitor, single point]"}, {"smiles": "Cc1ccn2c(Nc3ccc4c(c3)OCO4)c(-c3ccc(C)o3)nc2c1", "Potency": "inconclusive [inhibitor, single point]"}, {"smiles": "Cc1ccc(C(=O)NCCSc2c[nH]c3ccccc23)cc1C", "Potency": "inconclusive [inhibitor, single point]"}, {"smiles": "Cc1ccc(CN2CCN(Cc3ccccc3-c3ccco3)CC2CCO)o1", "note": "(stereo not given)", "Potency": "inconclusive [inhibitor, single point]"}, {"smiles": "CCOc1ccc(N(CC)C(=O)c2cc3c(s2)-c2ccc(Cl)cc2SC3)cc1", "Potency": "inconclusive [inhibitor, single point]"}, {"smiles": "Cc1ccc(C(=O)NCCc2nnc3ccc(SCC(=O)Nc4ccc(C)cc4C)nn23)cc1", "Potency": "inconclusive [inhibitor, single point]"}, {"smiles": "Cc1nc(C(=O)N2CCCC(N3CCN(c4ccccc4C)CC3)C2)cs1", "note": "(stereo not given)", "Potency": "inconclusive [inhibitor, single point]"}, {"smiles": "COc1cc(OC)c(CN2CCC(Cc3ccccc3)CC2)cc1Br", "Potency": "inconclusive [inhibitor, single point]"}, {"smiles": "O=C(/C=C/c1ccc2c(c1)OCO2)NCc1ccncc1", "Potency": "inconclusive [inhibitor, partial curve, poor fit]"}, {"smiles": "CCN(C(=O)Cn1cc(C(C)=O)c2ccccc21)c1ccccc1", "Potency": "inconclusive [inhibitor, single point]"}, {"smiles": "CC(C)C(NS(=O)(=O)c1ccccc1F)C(=O)OCC(=O)NCc1ccco1", "note": "(stereo not given)", "Potency": "inactive"}, {"smiles": "O=C(c1cn(-c2ccccc2)nc1-c1cccnc1)N1CCCC(C(F)(F)F)C1", "note": "(stereo not given)", "Potency": "inconclusive [inhibitor, single point]"}, {"smiles": "Cc1nnnn1/C(=C\\c1ccccc1)C(=O)OCC(=O)NC1CCCCC1", "Potency": "active: 14.6 µM"}, {"smiles": "CCc1cccc(CC)c1NC(=O)CO/N=C(\\N)CC(=O)NC1CCCCC1", "Potency": "inactive"}, {"smiles": "CC(=O)NC(=O)c1ccccc1O", "Potency": "inactive"}, {"smiles": "COc1ccc(CNC(=O)CN2C(=O)NC(C)(c3cccc(Br)c3)C2=O)cc1", "note": "(stereo not given)", "Potency": "inactive"}, {"smiles": "CC1(C)SC(=S)N(/N=C/c2ccc(O)cc2)C1N(O)C(=O)Nc1ccc([N+](=O)[O-])cc1", "note": "(stereo not given)", "Potency": "inconclusive [inhibitor, partial curve]"}, {"smiles": "CC1=CC2=C(C=O)C(=O)C(C)(O)C(O)C2=CO1", "note": "(stereo not given)", "Potency": "inconclusive [inhibitor, single point]"}, {"smiles": "Cc1ccc(C(CC(=O)N2CCOCC2)c2ccco2)cc1", "note": "(stereo not given)", "Potency": "inconclusive [inhibitor, single point]"}, {"smiles": "Cc1ccc(CNS(=O)(=O)c2ccc3c(c2)OCCO3)cc1", "Potency": "inconclusive [inhibitor, single point]"}, {"smiles": "O=C1c2cc(Br)ccc2OC2C=CC=CC12", "note": "(stereo not given)", "Potency": "inactive"}, {"smiles": "O=C(NCc1ccc(F)cc1)c1c2c(nc3ccccc13)CCC2", "Potency": "inconclusive [inhibitor, partial curve]"}, {"smiles": "CC(Oc1ccc(Br)cc1)C(=O)Nc1ccc(S(=O)(=O)N(C)C2CCN(C)CC2)cc1", "note": "(stereo not given)", "Potency": "active: 6.51 µM"}, {"smiles": "CCCCn1c(N)c(N(C(=O)CSc2nnnn2-c2ccc(C)cc2)C2CCCC2)c(=O)[nH]c1=O", "Potency": "inactive"}, {"smiles": "COc1ccc(CCNC(=O)C(=O)NCC2CCCN2S(=O)(=O)c2ccccc2)cc1OC", "note": "(stereo not given)", "Potency": "active: 13 µM"}, {"smiles": "COc1cc(Cl)ccc1OCc1cc(C(=O)N2C[C@]3(C)C[C@H]2CC(C)(C)C3)no1", "Potency": "active: 16.4 µM"}, {"smiles": "O=C(Nc1cc(Cl)ccc1O)c1snnc1-c1ccccc1", "Potency": "active: 16.4 µM"}, {"smiles": "O=C(CCCCCNC(=O)N1CCn2c1nc1ccccc12)NCCc1ccccc1", "Potency": "inconclusive [inhibitor, single point]"}, {"smiles": "Cc1nnc(SCC(=O)Nc2sc3c(c2C(N)=O)CCC(C)C3)[nH]c1=O", "note": "(stereo not given)", "Potency": "inactive"}, {"smiles": "Cc1nnc(NN2CCOCC2)[nH]c1=O", "Potency": "inactive"}, {"smiles": "COc1ccc(-c2c(C)c3ccc(O)c(CN4CCCCC4C)c3oc2=O)cc1OC", "note": "(stereo not given)", "Potency": "inconclusive [inhibitor, single point]"}]}]}
